From PMC4336329 (PLoS ONE, 2015)
Hit rate of the full screen: of about 310,000 compounds, about 2,200 (0.71%) showed an effect of 50% or more. Effects have a minus sign here. The list shows a part of the results.

molecular target: human ether-à-go-go-related gene (hERG) potassium channel (human, UniProt Q12809); experiment: primary screen, population patch clamp on CHO cells stably expressing hERG
Sequence (Q12809 whole entry, looked up): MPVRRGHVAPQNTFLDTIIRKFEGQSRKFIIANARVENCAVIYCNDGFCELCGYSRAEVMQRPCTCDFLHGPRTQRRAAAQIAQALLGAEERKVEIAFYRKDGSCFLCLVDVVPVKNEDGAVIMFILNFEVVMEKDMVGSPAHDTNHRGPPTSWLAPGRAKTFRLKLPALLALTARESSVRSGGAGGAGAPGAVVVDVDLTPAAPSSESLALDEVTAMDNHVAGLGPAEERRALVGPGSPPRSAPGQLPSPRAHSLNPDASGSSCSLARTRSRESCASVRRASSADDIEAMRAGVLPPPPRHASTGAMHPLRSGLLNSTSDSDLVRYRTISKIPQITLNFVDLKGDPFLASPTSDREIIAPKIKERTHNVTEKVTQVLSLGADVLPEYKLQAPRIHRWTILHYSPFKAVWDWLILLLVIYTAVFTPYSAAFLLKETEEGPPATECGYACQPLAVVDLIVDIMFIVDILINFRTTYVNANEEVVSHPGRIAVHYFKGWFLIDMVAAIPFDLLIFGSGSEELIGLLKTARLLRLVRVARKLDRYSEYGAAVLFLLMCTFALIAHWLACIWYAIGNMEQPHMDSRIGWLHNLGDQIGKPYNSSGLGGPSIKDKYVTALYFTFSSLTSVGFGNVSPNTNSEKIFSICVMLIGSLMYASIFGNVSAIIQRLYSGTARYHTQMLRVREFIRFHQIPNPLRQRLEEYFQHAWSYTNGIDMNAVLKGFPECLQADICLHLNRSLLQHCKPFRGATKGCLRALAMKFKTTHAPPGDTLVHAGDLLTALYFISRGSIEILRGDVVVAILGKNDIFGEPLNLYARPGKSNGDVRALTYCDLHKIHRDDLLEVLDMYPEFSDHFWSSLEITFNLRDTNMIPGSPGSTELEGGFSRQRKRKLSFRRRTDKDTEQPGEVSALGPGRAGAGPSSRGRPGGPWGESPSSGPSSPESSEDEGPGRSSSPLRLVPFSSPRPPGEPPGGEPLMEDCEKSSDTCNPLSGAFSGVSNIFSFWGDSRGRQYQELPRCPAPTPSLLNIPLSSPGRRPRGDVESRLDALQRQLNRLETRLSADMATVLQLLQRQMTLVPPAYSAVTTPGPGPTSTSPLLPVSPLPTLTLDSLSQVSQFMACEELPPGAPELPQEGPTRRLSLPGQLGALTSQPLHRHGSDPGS

SMILES | hERG current change (%, negative = inhibition) at 1uM [%]
O=C1NC(=O)C(Nc2cccc3ccccc23)S1 (centres unmarked) | 10.2
Cc1cc(=O)oc2cc(OCC3CC(c4ccc(N(C)C)cc4)=NO3)ccc12 (centres unmarked) | 10.1
CN(Cc1ccccc1)C(=O)CCS(=O)(=O)c1ccc2c(c1)NC(=O)CS2 | 15
COC(=O)c1c(N2C(=O)[C@H]3[C@@H](C2=O)[C@]2(C(=O)Nc4c(C)cccc42)N2CCC[C@@H]32)sc(C)c1C | 12.2
COc1cc(C(=O)NCCNc2nc3c(C)c(C)ccc3cc2C#N)cc(OC)c1OC | 11.4
COc1ccccc1COc1ccc2c(C)c(CC(=O)O)c(=O)oc2c1C | 19.7
CCn1cc(C(=O)NCc2ccco2)c(=O)c2cc(S(=O)(=O)N3CCCCCC3)ccc21 | -1.17
COc1ccc(N(CC(=O)NC2CCCC2)C(=O)c2ccc(C)s2)cc1OC | 18.2
O=C(Cc1coc(-c2ccc(F)cc2)n1)NCc1ccccc1 | 16.2
CCC(C(=O)NC(C)CCc1ccco1)n1nc(C)n2c(cc3occc32)c1=O (centres unmarked) | 7
Cc1ccc(C)c(CNS(=O)(=O)c2ccc3c(c2)C(C)(C)C(=O)N3C)c1 | 3.6
CN1/C(=C\C=C(C#N)C#N)C(C)(C)c2ccccc21 | 2.94
CCOc1ccc(C(=O)OCC(=O)Nc2cc(C)on2)cc1OCC | -16.1
COC(=O)c1c(-c2ccc3ccccc3c2)csc1NC(=O)Cc1ccc(OC)c(OC)c1 | 10.1
CCC(CC)C(=O)Nc1ccc(Sc2ccc([N+](=O)[O-])cc2)cc1 | 0.864
COCCNC(=S)N1CCN(c2cccc(C(F)(F)F)c2)CC1 | 10.2
O=C(CCc1ccccc1)NCCS(=O)(=O)N1CCN(c2ccccc2)CC1 | -1.05
Cc1nnc(SCC(=O)N2CC(C)OC(C)C2)n1-c1ccccc1 (centres unmarked) | 7.77
CCN(CC)CCCNC(=O)C1CCN(C(=O)c2oc3cc4sc(N(C)C)nc4cc3c2C)CC1 | 6.69
NC(=O)c1ccc[n+](CC(=O)Nc2ccccc2C(=O)O)c1.[Cl-] | 2.91
CSc1ccc(S(=O)(=O)NC2CCCCCC2)cc1 | 0.919
C=CCOC(=O)C1=C(C)NC(SCC)=C(C#N)C1c1ccc(Cl)cc1 (centres unmarked) | 14

SMILES | hERG current change (%, negative = inhibition) at 1uM [%]
CC(O)c1ccc(OCCN(C)c2ccccn2)cc1 (centres unmarked) | 13.4
CCOc1cccc(CNc2nnnn2C)c1 | 15.9
CCN(CC)S(=O)(=O)c1ccc(/C=C/C(=O)OCC(=O)c2c(N)n(C)c(=O)n(C)c2=O)cc1 | 12.2
Cc1cccc(NC(=O)NCCc2ccc(Cl)cc2)c1 | 16.1
COc1ccc(N(C(=O)Cn2nnc(-c3ccc(Cl)cc3)n2)C(C(=O)NCC2CCCO2)c2ccncc2)cc1 (centres unmarked) | 7.6
Cc1ccc(S(=O)(=O)N/N=C2/CC(=O)CC(C)(C)C2)cc1[N+](=O)[O-] | 4.64
Cc1ccc(C(=O)CSc2ncnc3ccccc23)o1 | 2.02
Cc1ccc(S(=O)(=O)CCC(O)c2ccc(Cl)cc2)cc1 (centres unmarked) | 10.7
COc1cccc(/C=C(/C(=O)OCC(=O)NCC2CCCO2)c2ccccc2)c1 (centres unmarked) | 11.3
O=C(O)c1cnn2c(C(F)F)cc(C3CC3)nc12 | 6.54
Cc1cc(C)cc(NC(=O)N2CCC(NC(=O)c3ccccc3C)CC2)c1 | 14.4
Cn1c(=O)[nH]c2ncn(C)c2c1=O | 5.73
CCOc1ccc([N+](=O)[O-])cc1CNCCc1ccccc1.Cl | -13.8
O=C(O)C1CCCN1C(=O)OCC1c2ccccc2-c2ccccc21 (centres unmarked) | 12.1
COc1ccc(S(=O)(=O)NC(C)C(=O)NCC2CCCO2)cc1OC (centres unmarked) | 18.4
COc1cc2c(cc1OC)C(c1ccc(-c3ccc(Cl)cc3Cl)o1)=NCC2 | 13.2
C=C(C)COc1ccc(-c2n[nH]c(C)c2Oc2ccccc2OC)c(O)c1 | 1.2
CN1CCC(C)(O)C2CCCCC21 (centres unmarked) | 8.69
CCNc1nc(Oc2ccc(=O)[nH]n2)nc(N2CCOCC2)n1 | 20.2
O=C(NCc1ccc(Cl)cc1Cl)c1ccc2nc[nH]c2c1 | 10.6
O=c1[nH]c2ccc(S(=O)(=O)N3CCN(c4ccc(F)cc4)CC3)cc2o1 | -4.24
CN(C)S(=O)(=O)c1cc(C(=O)NCc2ccccc2)c(Cl)cc1Cl | -1.09
